# Test results reported in PubChem BioAssay AID1030 (National Center for Advancing Translational Sciences (NCATS), 2008).
# “And” between values parts separate entries of the source, which are not always exact repeats. Equal entries are not always repeated. Screen size: about 220,000 compounds; about 16,000 (7.3%) were called active. Inconclusive means that the source gave no clear call. Such entries were picked first, then a sample of the others. Calls come from the whole dose curve; as a rule, active = well fitted inhibition curve with a large enough effect (not every such curve was filed as active); inconclusive = small, poorly fitted or top-dose-only effect, or another doubt; inactive = no such curve, though single readings can be large or run the other way. No potency is given beside an inconclusive call; the fits are too rough.
# Target: Aldehyde dehydrogenase 1A1 (Homo sapiens) (UniProt P00352)
# Chain of UniProt P00352 (P00352 whole entry, looked up): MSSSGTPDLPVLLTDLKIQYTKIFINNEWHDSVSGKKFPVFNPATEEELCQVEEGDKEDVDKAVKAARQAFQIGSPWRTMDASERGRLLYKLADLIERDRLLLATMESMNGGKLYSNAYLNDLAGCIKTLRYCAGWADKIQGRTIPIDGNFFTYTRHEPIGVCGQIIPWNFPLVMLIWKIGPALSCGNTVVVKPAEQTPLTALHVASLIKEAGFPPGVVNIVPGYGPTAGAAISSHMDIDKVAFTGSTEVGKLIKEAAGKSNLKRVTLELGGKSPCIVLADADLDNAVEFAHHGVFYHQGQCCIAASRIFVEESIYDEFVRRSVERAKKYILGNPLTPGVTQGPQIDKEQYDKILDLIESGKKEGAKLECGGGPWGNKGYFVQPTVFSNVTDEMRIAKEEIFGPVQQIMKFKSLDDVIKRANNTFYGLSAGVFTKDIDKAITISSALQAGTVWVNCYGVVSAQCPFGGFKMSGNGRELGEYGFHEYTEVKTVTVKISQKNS
# Assay: qHTS Assay for Inhibitors of Aldehyde Dehydrogenase 1 (ALDH1A1);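 for activity, negative = inhibition: plate controls were no enzyme wells and a reference inhibitor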
# Details: Purified ALDH1A1, NADH fluorescence, propionaldehyde substrate; series mostly up to 75.3 µM; activity, negative = inhibition: at the top concentration
# Potency is the fitted concentration of half-maximal effect; tags give direction and shape of the fitted curve.
SMILES,"activity, negative = inhibition",Potency
C[C@H]1CC[C@@]2(NC1)O[C@@H]1C[C@@H]3[C@@H]4CC=C5C[C@@H](O)CC[C@]5(C)[C@@H]4CC[C@]3(C)[C@H]1[C@@H]2C,inactive: 9.13% [at 13.5 µM],–
Nc1ccc([N+](=O)[O-])cc1,–,"inconclusive [inhibitor, single point]"
C[N+]12CCC(CC1)C(C(O)(c1ccccc1)c1cccs1)C2 (stereo unspecified),inactive: 1.39%,–
O=S1OCC2C(CO1)C1(Cl)C(Cl)=C(Cl)C2(Cl)C1(Cl)Cl (stereo unspecified),–,inactive
N#Cc1c(Cl)c(Cl)c(Cl)c(C#N)c1Cl,–,"inconclusive [inhibitor, single point]"
c1ccc(Nc2ccc(Nc3ccccc3)cc2)cc1,–,"inconclusive [inhibitor, partial curve]"
Clc1nc(Cl)nc(Nc2ccccc2Cl)n1,inactive: -0.904%,–
CCOc1cccc(OCC)c2c(C)[n+](CC3CCCO3)c(C)c1-2 (stereo unspecified),–,"inconclusive [inhibitor, partial curve]"
CC1OC(O[C@@H]2C(O)CC(O[C@@H]3C(O)C[C@@H](OC4CC[C@]5(C)[C@H](CC[C@H]6[C@@H]5CC[C@]5(C)C(C7=CC(=O)OC7)C(O)C[C@@]65O)C4)OC3C)OC2C)CC(O)C1O (stereo partly specified),inactive: 17.7%,–
CN(C)c1ccc(-[n+]2c(-c3ccccc3)cc(-c3ccccc3)cc2-c2ccccc2)cc1,inactive: -14.1%,–
O=C1CC(N2CC=C(c3ccc(F)cc3)CC2)C(=O)N1c1ccc(F)cc1 (stereo unspecified),–,"inconclusive [inhibitor, single point]"
CCCc1nnc(NC(=O)CCC(=O)N2CCN(CCOC(c3ccccc3)c3ccccc3)CC2)s1,–,"inconclusive [inhibitor, single point]"
CC(=O)c1ccc2c(c1)C1C(Cl)C(Sc3ccccc3[N+](=O)[O-])CC1C(C(=O)O)N2 (stereo unspecified),–,active: 1.78 µM
O=C(CCN1CCOCC1)NCC(=O)Nc1ccc(Br)cc1C(=O)c1ccccc1,inactive: 5.01%,–
COc1cc(C(=S)N2CCOCC2)cc(OC)c1OC(=O)Cc1ccccc1,–,"inconclusive [inhibitor, single point]"
N=C(N)SCc1ccc(Cl)c2ccccc12 (tested in a mixture with another compound),inactive: -1.33% [at 13.5 µM] and inactive: -0.738% [at 13.5 µM],–
O=C(COc1ccc(Br)cc1)N1CCN(C2CCCC2)CC1,inactive: 6.72%,–
CCCCCCCC(=O)NC(Oc1ccccc1[N+](=O)[O-])C(Cl)(Cl)Cl (stereo unspecified),inactive: -6.19%,–
CCn1ncc(-c2ccnc3cc(C(=O)O)nn23)c1C,–,"inconclusive [inhibitor, single point]"
COc1cc(-c2ccc(N)c(OC)c2)ccc1N,–,"inconclusive [inhibitor, partial curve]"
Cc1cccc(N=Cc2c(O)n(-c3ccccc3C)c(=O)[nH]c2=O)c1,–,active: 25.1 µM
CCN1C(=O)C(=C/C=C/c2ccco2)C(=O)N(CC)C1=S,–,active: 1.26 µM

SMILES,"activity, negative = inhibition",Potency
CO[C@@H](C)[C@](O)(C(=O)OCC1=CCN2CC[C@@H](O)[C@H]12)C(C)C,inactive: 10.9% [at 20.9 µM],–
CO[C@H]1C=C2CCN(C)[C@@H]2[C@@H]2c3cc4c(cc3C(=O)O[C@H]21)OCO4,–,"inconclusive [inhibitor, partial curve]"
CCCCn1c(N)c(C(=O)OCC2CCCO2)c2nc3ccccc3nc21 (stereo unspecified),–,"inconclusive [inhibitor, partial curve]"
O=C(c1cn(Cc2ccccc2)c2ccccc12)C1CC1,inactive: 9.15%,–
O=[N+]([O-])c1ccc(N2CCNCC2)cc1N1CCCCCC1,–,active: 4.47 µM
O=C1NC(=O)[C@]2(Cc3ccccc3N3CCN(c4ccccc4)CC32)C(=O)N1c1ccccc1 (stereo partly specified),–,active: 25.1 µM
C/C=C(/C)C(=O)O[C@H]1C(C)=C2[C@H]([C@@H]1OC(=O)CCCCCCC)[C@@](C)(OC(C)=O)C[C@H](OC(=O)CCC)[C@@]1(O)[C@H]2OC(=O)[C@@]1(C)O,–,inactive
CC(=NCCC1=CCCCC1)c1c(O)n(C)c(=O)n(C)c1=O,–,"inconclusive [inhibitor, full curve]"
[N-]=[N+]=NCc1cn2cccnc2n1,–,"inconclusive [inhibitor, partial curve]"
CC(N)[C@@H](O)c1ccccc1 (stereo partly specified),inactive: 16.4%,–
Oc1c(Br)cc(Br)cc1Oc1ccc(Br)cc1Br,inactive: -0.503%,–
CCN1CCN(CC(=O)c2c(C)n(Cc3ccccc3)c3ccc(OC)cc23)CC1,–,"inconclusive [inhibitor, single point]"
CCC(=NCC1CCCO1)c1c(O)n(-c2ccc(OC)cc2)c(=O)[nH]c1=O (stereo unspecified),inactive: 12.2%,–
O=[N+]([O-])c1ccc(-c2[se]c3ccccc3c2I)cc1,–,"inconclusive [inhibitor, single point]"
COC1=CC(=O)O[C@@H](/C=C/c2ccc3c(c2)OCO3)C1,–,active: 25.1 µM
NC(Cn1ccc(=O)[nH]c1=O)C(=O)O (stereo unspecified),inactive: 11.4%,–
O=C(c1c[nH]c(C(=O)C(Cl)(Cl)Cl)c1)c1ccccc1Cl,–,"inconclusive [inhibitor, full curve, poor fit]"
O=c1c2ccccc2nc(/C=C/c2ccc([N+](=O)[O-])o2)n1-c1ccc(O)cc1,–,"inconclusive [inhibitor, single point]"
COc1cc2c(cc1/C=C/[N+](=O)[O-])OCO2,–,"inconclusive [inhibitor, partial curve]"
COc1ccccc1OCC#CCN1CCCCCC1,–,active: 28.2 µM
O=C(O)C(F)(F)S(=O)(=O)O,–,"inconclusive [inhibitor, single point]"
CCc1c(C)nc(N)nc1N1N=C1SCCOc1ccccc1,–,"inconclusive [inhibitor, single point]"

SMILES,"activity, negative = inhibition",Potency
CN1/C(=C\C=C\C2=[N+](C)c3ccc4ccccc4c3C2(C)C)C(C)(C)c2ccccc21,–,active: 20 µM
COc1ccccc1N1C(=O)NC(=O)/C(=C/c2ccc3c(c2)Cc2ccccc2-3)C1=O,–,"inconclusive [inhibitor, partial curve]"
COc1ccc(-c2cc(=NCCC(=O)O)c3cc(C)ccc3o2)cc1,–,"inconclusive [inhibitor, partial curve]"
O=C(c1cccn2c(=O)c3ccccc3nc12)N1CCC2(CC1)OCCO2,–,"inconclusive [inhibitor, partial curve]"
O=C1CC2OCC=C3CN4CC[C@@]56c7ccccc7N1C5C2C3CC46 (stereo partly specified),inactive: 9.51%,–
O=C(COc1ccc2ccccc2c1)N1CCN(Cc2ccncc2)CC1,–,"inconclusive [inhibitor, single point]"
C[C@@H]1CC[C@@]2(OC1)O[C@H]1[C@@H](O)[C@H]3[C@@H]4CC[C@H]5C[C@@H](O[C@@H]6O[C@H](CO)[C@H](O[C@@H]7O[C@H](CO)[C@@H](O)[C@H](O[C@@H]8OC[C@@H](O)[C@H](O)[C@H]8O)[C@H]7O[C@@H]7O[C@H](CO)[C@@H](O)[C@H](O[C@@H]8O[C@H](CO)[C@@H](O)[C@H](O)[C@H]8O)[C@H]7O)[C@H](O)[C@H]6O)[C@H](O)C[C@]5(C)[C@H]4CC[C@]3(C)[C@H]1[C@@H]2C,–,active: 20 µM
O=C(Oc1ccccc1)N1CCC[C@@]2(CCN(C(c3ccccc3)c3ccccc3)C2)C1,–,"inconclusive [inhibitor, single point]"
C[CH2][Hg][S]c1ccccc1C(=O)O,–,active: 0.178 µM
C[C@]12C=CC(=O)C=C1CCC1C2=CC[C@]2(C)[C@@H](C(=O)CN3CCN(c4cc(N5CCCC5)nc(N5CCCC5)n4)CC3)CC[C@@H]12 (stereo partly specified),–,"inconclusive [inhibitor, partial curve]"
c1ccc(Nc2cccc3ccccc23)cc1,–,"inconclusive [inhibitor, partial curve]"
O=C1NC(=S)N(Cc2ccco2)C(=O)/C1=C\c1cccs1,–,active: 17.8 µM
Cc1cc(S(N)(=O)=O)ccc1N=Cc1c(O)n(-c2ccccc2)c(=O)[nH]c1=O,–,"inconclusive [inhibitor, single point]"
Cc1ccc(S(=O)(=O)Nc2cc(C(=O)N3CCC4(CC3)OCCO4)ccc2N2CCCCC2)cc1,–,active: 3.98 µM
COC(=O)C(O)(c1ccc(NC(=S)NC(=O)c2ccc(Cl)cc2Cl)cc1)C(F)(F)F (stereo unspecified),–,"inconclusive [inhibitor, single point]"
CC1(C)C(O)CC(O)[C@]2(C)C1CC(=O)[C@]1(C)C2CC[C@@]2(C)C(c3ccoc3)OC(=O)C3OC321 (stereo partly specified),inactive: 11.4%,–
CC1=NN(c2ccccc2)C(=O)/C1=C/c1c(O)[nH]c(=S)[nH]c1=O,–,"inconclusive [inhibitor, single point]"
C[C@@H]1O[C@H](O[C@@H]2CC[C@@]3(C=O)[C@H]4CC[C@@]5(C)[C@@H](C6=CC(=O)OC6)CC[C@@]5(O)[C@@H]4CC[C@]3(O)C2)C[C@H](O)[C@@H]1O,–,"inconclusive [inhibitor, single point]"
Cc1ccc(S(=O)(=O)NCCC(=O)Nc2ccc(Cl)cc2C(=O)c2ccccc2)cc1,–,"inconclusive [inhibitor, full curve]"
N#CC(O[C@@H]1OC(COC2OC(CO)C(O)C(O)[C@@H]2O)C(O)C(O)C1O)c1ccccc1 (stereo partly specified),inactive: 8.84%,–
Cc1ccc(/C=C2\C(=O)NC(=S)N(c3ccccc3F)C2=O)s1,–,active: 8.91 µM
C/C=C(\C)C(=O)OC1CC(OC(C)=O)[C@@]2(C(=O)OC)COC3C2[C@@]12CO[C@](O)(C(=O)OC)C2[C@](C)(C12OC1(C)C1CC2OC2OC=C[C@]21O)C3O (stereo partly specified),inactive: 1.46%,–
